Measured values as given in PubChem BioAssay AID1508623 (National Center for Advancing Translational Sciences (NCATS), 2021).
In all, about 48,000 compounds went through this assay and about 450 (0.94%) were called active. The inconclusive results got no clear call from the source; some entries with a clear call stand among them for comparison. The call rests on the fitted dose curve; in most records, active means well fitted inhibition curve with a large enough effect; inconclusive means small, poorly fitted or top-dose-only effect; inactive means no such curve, though single readings can be large or run the other way. Where the call is inconclusive, the potency comes from a doubtful curve fit.

Test: Primary qHTS for Identification of Small Molecule Inhibitors of Huntingtin Promoter Activity; further: nearly all actives have a fitted effect of over 50% in size
Details: HEK293 HTT promoter firefly luciferase reporter (activity 0% = vehicle and -100% = no light), 24 h; activity change, negative = inhibition: at 57.5 µM (top of the series)
How it was run: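 Firefly luciferase signal from promoter-reporter HEK293 cells was scaled between vehicle (0%) and zero RLU (-100%). Compounds were tested at final concentrations of up to 57.5 uM over 24 h at 37 degrees C. PTC124 at 50 uM final served as control inhibitor.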
Potency means the concentration at half of the fitted maximal effect; tags describe the fitted curve by direction and shape.

Structure (SMILES)	activity change, negative = inhibition	Potency
CC(=O)Nc1ccc(NC(=O)c2nc(SCc3ccccc3C)ncc2Cl)cc1	inactive: -6.91%	–
O=C(CCCn1ccc2cc(S(=O)(=O)N3CCCC3)ccc21)NCc1ccc(Cl)cc1	–	inconclusive: 11.2 µM [inhibitor, partial curve, poor fit]
Cc1nc2ccn(Cc3ccccc3)c(=O)c2cc1C(=O)NCc1ccccc1F	–	inconclusive: 0.447 µM [inhibitor, full curve, poor fit]
O=c1cc(-c2ccccc2)oc2ccccc12	inactive: 39.3% [at 116 µM]	–
O=C(c1cccc(F)c1)N1CCC(c2c[nH]c3ccccc23)(c2c[nH]c3ccccc23)CC1	–	inconclusive: 31.6 µM [inhibitor, single point]
O=C(NCC1CCCO1)c1c[nH]c2ccc(S(=O)(=O)Nc3ccc(F)cc3F)cc2c1=O (centres undefined)	inactive: 21.7%	–
COc1ccc(C2CC(=O)c3c([nH]c(C(=O)OC4CCCCCC4)c3C)C2)cc1OC (centres undefined)	–	inconclusive: 10 µM [inhibitor, partial curve]
COc1ccc(-n2nnc(-c3nc(-c4ccccc4C)no3)c2N)cc1Cl	inactive: -5.64%	–
Cc1cccc(OCC(=O)N(Cc2ccc(C(C)C)cc2)Cc2ccco2)c1C	–	inconclusive: 25.1 µM [inhibitor, single point]
CCOC(=O)c1cc(-c2ccc(F)cc2)n(CCC(=O)NCc2ccccc2OC)c1C	–	inconclusive: 12.6 µM [inhibitor, partial curve, poor fit]
COc1ccc(NC(=O)C(=O)NCC(c2cccnc2)N2CCc3ccccc3C2)cc1 (centres undefined)	–	inconclusive: 39.8 µM [inhibitor, single point]
CCc1cnn2c(NCc3ccc[n+]([O-])c3)cc(N3CCCC[C@@H]3CCO)nc12	–	inconclusive: 0.0611 µM [inhibitor, full curve]
O=C(Nc1cc(Cl)ccc1Cl)c1cc(S(=O)(=O)N2CCCc3ccccc32)ccc1F	–	inconclusive: 25.1 µM [inhibitor, partial curve, poor fit]
CN(C(=O)c1ccc2c(c1)N(Cc1ccccc1F)C(=O)c1ccccc1S2(=O)=O)C1CCCCC1	–	inconclusive: 39.8 µM [inhibitor, single point]
Cc1ccc(-n2nc(C(=O)Nc3cccc(C#N)c3)c3c4ccccc4n(C)c3c2=O)cc1	inactive: -6.61%	–
O=C(NCCc1ccc(Cl)cc1)c1nc(-c2cccc(F)c2)n2c1CCCCC2	–	inconclusive: 20 µM [inhibitor, single point]
CCOC(=O)c1c(C)c(C(=O)NCc2ccc(Cl)cc2)c(C)n1CC	–	inconclusive: 25.1 µM [inhibitor, single point]
Brc1ccc(CN2CCc3nc(N4CCN(c5ncccn5)CC4)ncc3C2)cc1	–	inconclusive: 10 µM [inhibitor, partial curve]
COc1ccc(NCc2cc3ccc(OC)cc3n(CC(=O)Nc3cccc(OC)c3)c2=O)cc1	–	inconclusive: 14.1 µM [inhibitor, partial curve]
Cc1cc(C)c(/C=C/c2onc(C)c2S(=O)(=O)N2CCC(C(=O)Nc3ccc(Cl)cc3C)CC2)c(C)c1	inactive: 3.16%	–

Structure (SMILES)	activity change, negative = inhibition	Potency
CCOC(=O)c1c(C)[nH]c(C)c1S(=O)(=O)NCC(=O)N1CCN(c2cc(Cl)ccc2C)CC1	–	inconclusive: 28.2 µM [inhibitor, single point]
COc1ccc(/C=C/c2onc(C)c2S(=O)(=O)N2CCC(C(=O)N3CCCCC3)CC2)cc1	–	inconclusive: 8.91 µM [inhibitor, partial curve, poor fit]
COc1ccccc1CNC(=O)c1cc2cc(C)ccc2n1C	–	inconclusive: 10 µM [inhibitor, partial curve, poor fit]
CN(C)c1cccc(C(=O)N2CCC(c3ccncc3)CC2)c1	–	inconclusive: 15.8 µM [inhibitor, partial curve, poor fit]
COc1cc(CNc2ccc3[nH]c(=O)[nH]c3c2)cc(Br)c1OCc1ccc(F)cc1	–	inconclusive: 31.6 µM [inhibitor, partial curve, poor fit]
COc1ccc(Cn2ccc3nc(C)c(C(=O)N4CCN(c5cc(C)ccc5C)CC4)cc3c2=O)cc1	–	inconclusive: 25.1 µM [inhibitor, single point]
CC(C)N(CC[C@H](c1ccccc1)c1cc(CO)ccc1O)C(C)C	inactive: 0.0909%	–
CCCN(C(=O)c1sc2nc3n(c(=O)c2c1C)CCCC3)c1ccccc1C	–	inconclusive: 22.4 µM [inhibitor, partial curve, poor fit]
CCOc1ccc(CCNC(=O)c2sc3ncccc3c2-n2c(C)ccc2C)cc1	–	inconclusive: 39.8 µM [inhibitor, single point]
CCc1noc(-c2ccc(N(C)Cc3ccc(OC)cc3)c([N+](=O)[O-])c2)n1	–	inconclusive: 15.8 µM [inhibitor, partial curve, poor fit]
Cc1c(Cl)cccc1NC(=O)C(=O)NCC(c1cccnc1)N1CCN(c2ccccc2)CC1 (centres undefined)	–	inconclusive: 39.8 µM [inhibitor, single point]
Cc1ccc(C)c(Nc2nc3nonc3nc2Nc2cccc(C)c2C)c1	–	inconclusive: 17.8 µM [inhibitor, partial curve, poor fit]
CCc1ccccc1NC(=O)C(C)n1nc(-c2ccc(C)c(C)c2)ccc1=O (centres undefined)	–	inconclusive: 14.1 µM [inhibitor, partial curve, poor fit]
COc1ccc(CNC(=O)C(=O)NCC(c2ccco2)S(=O)(=O)c2ccc(C)cc2)cc1 (centres undefined)	–	inconclusive: 39.8 µM [inhibitor, single point]
CCOC(=O)c1cccc(NC(=O)C(Cc2ccccc2)NS(=O)(=O)c2cccc3nsnc23)c1 (centres undefined)	–	inconclusive: 0.398 µM [inhibitor, single point]
COc1ccc(/C=C/c2nc3ccccc3c(=O)n2-c2cccc(C(F)(F)F)c2)cc1	–	inconclusive: 31.6 µM [inhibitor, single point]
CN(C)S(=O)(=O)c1ccc2c(c1)C(=Cc1cc3c([nH]1)CCCC3)C(=O)N2	–	inconclusive: 15.3 µM [inhibitor, partial curve]
Clc1ccc(CNc2cc(-c3ccccc3)nc3nncn23)cc1	–	inconclusive: 31.6 µM [inhibitor, partial curve, poor fit]
COc1ccc(-c2nc3sc(CCNS(=O)(=O)c4ccc(F)c(C)c4)c(C)n3n2)cc1	–	inconclusive: 31.6 µM [inhibitor, partial curve]
COc1ccc(N(C(=O)COc2ccccc2OC)S(=O)(=O)c2ccc(Cl)cc2)cc1	–	inconclusive: 39.8 µM [inhibitor, partial curve, poor fit]

Structure (SMILES)	activity change, negative = inhibition	Potency
COc1ccc(-c2noc(CSc3nc(N)cc(=O)[nH]3)n2)cc1OC	–	inconclusive: 39.8 µM [inhibitor, single point]
CCOC(=O)c1ccc(NC(=O)c2nc(SCc3ccccc3F)ncc2Cl)cc1	–	inconclusive: 35.5 µM [inhibitor, single point]
Cc1ccc(CN2CCCn3nc(C(=O)NCC(C)c4ccccc4)cc3C2=O)cc1 (centres undefined)	–	inconclusive: 39.8 µM [inhibitor, single point]
CCOc1ccc(S(=O)(=O)NCCc2sc3nc(-c4ccc(C)cc4)nn3c2C)cc1	–	inconclusive: 31.6 µM [inhibitor, partial curve, poor fit]
COc1cc([C@@H]2c3cc4c(cc3[C@@H](O[C@@H]3O[C@@H]5CO[C@@H](C)O[C@@H]5[C@H](O)[C@@H]3O)[C@H]3COC(=O)[C@H]23)OCO4)cc(OC)c1O	inactive: -29.1%	–
O=c1oc2ccccc2cc1-c1cn2cc(Cc3ccc(Br)cc3)sc2n1	inactive: -19.7%	–
Cc1cc(C)cc(NC(=O)C2CCN(S(=O)(=O)c3cccc(-c4noc(C)n4)c3)CC2)c1	–	inconclusive: 25.1 µM [inhibitor, single point]
COc1ccc(S(=O)(=O)c2nnn(-c3ccc(C)c(Cl)c3)c2C)cc1	–	inconclusive: 28.2 µM [inhibitor, single point]
CC1=Nc2cc(C(=O)NC(C)C)ccc2Sc2ccc(C)cc21	–	inconclusive: 12.6 µM [inhibitor, partial curve]
Fc1ccc(Br)cc1C1C=C(c2ccc(Br)cc2)Nc2nnnn21 (centres undefined)	–	inconclusive: 11.2 µM [inhibitor, partial curve, poor fit]
Cn1c(=O)c2nc(SCC(=O)Nc3ccc(Cl)c(Cl)c3)n(C)c2n(C)c1=O	–	inconclusive: 39.8 µM [inhibitor, single point]
Cc1ccc(CN(Cc2ccco2)c2cnc(S(C)(=O)=O)nc2C(=O)Nc2ccccc2Br)o1	–	inconclusive: 39.8 µM [inhibitor, single point]
CCCCC(CC)CN=C(N)NC(N)=NCCCCCCN=C(N)NC(N)=NCC(CC)CCCC (centres undefined)	–	inconclusive: 1.58 µM [inhibitor, full curve, poor fit]
CCN(CC)CCNC(=O)COc1ccc(Cl)cc1	inactive: 5.43%	–
COc1cccc(NC(=O)c2ccc3nc(Cc4ccccc4)oc3c2)c1	–	inconclusive: 31.6 µM [inhibitor, partial curve, poor fit]
CCc1ccc(-n2c(SCc3cccc(F)c3)nc3[nH]ncc3c2=O)cc1	–	inconclusive: 20 µM [inhibitor, partial curve, poor fit]
CC(C)OC(=O)c1cc(C(=O)OC(C)C)cc([N+](=O)[O-])c1	inactive: 3.2% [at 116 µM]	–
Cc1ccc(Cn2c(SCc3ccc(C(=O)NC4CCCC4)cc3)nc3ccncc32)cc1	–	inconclusive: 35.5 µM [inhibitor, single point]
Cc1ccc(-n2c(-c3ccco3)nc3c(cnn3-c3ccccc3C)c2=O)cc1	–	inconclusive: 39.8 µM [inhibitor, partial curve]
